# Experimental data taken from PubChem BioAssay AID485344 (National Center for Advancing Translational Sciences (NCATS), 2010).
# In all, about 340,000 compounds went through this assay and about 6,900 (2%) were called active. Only a part is listed here, and it is no random draw. Where no call is shown, the source filed none.
# Target: D(2) dopamine receptor (Homo sapiens) (UniProt P14416)
# Experiment: HTS Assay for Allosteric Antagonists of the Human D2 Dopamine Receptor: Primary Screen for Antagonists; note: 0% is about no effect
# Conditions: HEK293 TREx D2 cells, calcium flux, dopamine EC80; at 10 µM; stronger effect = higher value
# In short: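 Dopamine at EC80 is the agonist stimulus; test compounds precede it by 180 s. Calcium flux read kinetically in a force-coupled, inducible HEK293 T-REx D2 cell line.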
# Sequence of UniProt P14416 (P14416 whole entry, looked up): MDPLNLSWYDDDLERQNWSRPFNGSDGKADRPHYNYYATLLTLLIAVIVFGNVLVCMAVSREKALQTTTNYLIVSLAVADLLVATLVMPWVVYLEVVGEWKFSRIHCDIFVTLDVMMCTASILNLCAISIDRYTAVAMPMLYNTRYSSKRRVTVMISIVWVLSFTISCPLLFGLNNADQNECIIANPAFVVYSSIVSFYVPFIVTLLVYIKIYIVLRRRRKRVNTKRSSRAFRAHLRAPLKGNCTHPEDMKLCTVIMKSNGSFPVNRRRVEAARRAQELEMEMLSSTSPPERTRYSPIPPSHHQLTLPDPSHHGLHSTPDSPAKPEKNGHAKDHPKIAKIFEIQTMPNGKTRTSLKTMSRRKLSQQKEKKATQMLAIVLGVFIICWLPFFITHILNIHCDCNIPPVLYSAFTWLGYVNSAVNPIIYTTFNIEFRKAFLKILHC
row,Compound,inhibition [%]
1,O=C(CSc1nccn1-c1ccc(F)cc1)Nc1nc2ccccc2s1,12.5
2,Cc1cccc(Cn2c(-c3ccccc3)nc3ccccc32)c1,-17.1
3,O=C(CC1N=C2c3ccccc3N=C(SCc3ccc(F)cc3)N2C1=O)NCCc1ccccc1 (stereo unspecified),-18.5
4,Cc1ccc(-c2cnc(C3CC3)o2)cc1S(=O)(=O)Nc1cccc(C)c1C,1.07
5,CC(C)(C)OC(=O)N1CCC(c2c(C(=O)N3CCN(c4ccccn4)CC3)cnn2-c2ccc(F)cc2F)CC1,-6.09
6,Cc1ccc2c(c1)-c1nc(-c3ccc4c(c3)NC(=O)CO4)cc(-c3ccccc3)c1CO2,5.75
7,CC(=O)N1CCC(N(Cc2ccc(C)o2)C(=O)Nc2cccc(C(F)(F)F)c2)CC1,-13.8
8,Cc1ccc(C)c(NC(=O)CN2C(=O)CCc3cc(S(=O)(=O)N4CCCCC4)ccc32)c1,4.08
9,COc1ccccc1NC(=O)Cn1c(C)cc(C)c(C#N)c1=O,-15.9
10,CC(=O)N1CCc2c(sc3c2c(=O)n(-c2ccccc2)c(=O)n3CC(=O)c2ccccc2)C1,-3
11,O=C(NC1CCN(Cc2ccccc2)CC1)c1ccc(Cn2c(=O)c3ccccc3n(Cc3ccc(Cl)cc3)c2=O)cc1,1.61
12,COc1ccc(NC(=O)Nc2cc(-c3cn4cccnc4n3)ccc2C)cc1,-4.36
13,CC(=O)N1CCc2cc(S(=O)(=O)NC(Cc3ccccc3)C(=O)NCc3ccccc3)ccc21 (stereo unspecified),4.89
14,COCc1nc2ccccc2n1Cc1ccc(C(C)(C)C)cc1,-14.8
15,CC(=O)Nc1ccc(NC(=O)c2ccc3c(c2)N(Cc2cccc(Cl)c2)C(=O)c2ccccc2S3=O)cc1 (stereo unspecified),-19.3
16,Cc1ccc(Cn2c(=O)n(Cc3ccccc3)c(=O)c3oc4ccccc4c32)cc1,-0.502
17,Cc1cccc(C(=O)Nc2cc3c(cc2C)n(C)c(=O)n3C)c1,-13.5
18,CCC(=O)N1CCc2cc(Br)cc(S(=O)(=O)NCCc3cccc(C)c3)c21,-20.2
19,O=C(Nc1sc2c(c1C(=O)NCc1ccco1)CCCC2)c1cc(=O)c2cc(Cl)ccc2o1,16.7
20,O=C1C(c2ccc(F)cc2)N(CCc2ccc(Cl)cc2)C(=O)CN1C1CCCCC1 (stereo unspecified),12.4
21,CCc1ccc(S(=O)(=O)Nc2cccc(-c3ccc(N4CCCCC4)nn3)c2)s1,14.3

row,Compound,inhibition [%]
1,Cc1nnc(N2CCN(C(=O)NCCC(C)C)CC2)c2nn(-c3ccc(Cl)cc3)c(C)c12,1.57
2,CCOc1cc(C(=O)Nc2cc3c(cc2N2CCCC2)n(C)c(=O)c(=O)n3C)cc(OCC)c1OCC,20.9
3,Cc1cc(C)c2nc(C)cc(Nc3cccc(C(=O)O)c3)c2c1,3.07
4,O=S(=O)(c1ccc(Cl)cc1)c1nc(-c2cccs2)oc1N1CCCCC1,7.11
5,CCc1cc2c(cc3c(=O)n(CC(=O)NC(C)c4ccccc4)ncn32)s1 (stereo unspecified),-6.55
6,COc1ccccc1CNC(=O)Cc1csc2nc(-c3ccc(F)cc3)cn12,-25.7
7,Cc1cc(C)nc(-n2nc(C)c3c2N(Cc2ccccc2F)C(=O)CC3c2ccc(Cl)cc2)n1 (stereo unspecified),14.7
8,COc1cccc(NC(=O)CCN2C(=O)c3ccccc3Sc3ncccc32)c1,-1.28
9,CCc1ccccc1NC(=O)C1CCN(S(=O)(=O)c2cn(C)cn2)CC1,7.1
10,CCOC(=O)c1sc2ccccc2c1S(=O)(=O)NCc1ccccc1OC,3.86
11,Cc1cccc(OCc2nc(CC(=O)Nc3ccc(Cl)cc3)cs2)c1,-16.7
12,CCC1CN(C(=O)N2CCC(C(=O)NCCc3ccc(OC)cc3OC)CC2)c2cc(C)ccc2O1 (stereo unspecified),10.3
13,Cc1cccc(C)c1-n1ncc(C(=O)NCCCN2CCC(C)CC2)c1C1CCN(C(=O)OC(C)(C)C)CC1,-0.548
14,Cc1cc(Nc2ccc(Br)cc2)nc(C)n1,-0.248
15,CCOC(=O)c1cnc2c(ccc3ccccc32)c1Nc1ccc(C(C)=O)cc1,-11
16,COc1cccc(CSc2nc3ccncc3n2CC(=O)Nc2ccc(OC)c(OC)c2OC)c1,-19.1
17,O=C1Cc2cc(S(=O)(=O)N3CCN(c4cccc(Cl)c4)CC3)ccc2N1,-1.48
18,CCn1c(C(=O)NCCc2ccc(S(N)(=O)=O)cc2)cc2sc(Cl)cc21,-7.15
19,CC(=O)N1CCCc2ccc(NS(=O)(=O)c3cccc(Cl)c3)cc21,-17.1
20,CC(=O)N1CCCC1c1nc2ccccc2n1Cc1ccccc1Cl (stereo unspecified),14.7
21,CCOc1ccc(CCn2c3c(c(=O)[nH]c2=O)C(NC(=O)c2cccc(F)c2)(C(F)(F)F)C(=O)N3)cc1OCC (stereo unspecified),-22.9

row,Compound,inhibition [%]
1,Cn1ncc2c(N3CCN(c4ccc(F)cc4)CC3)ncnc21,-20.5
2,O=C(Cc1ccc(-c2ccccc2)cc1)NCCS(=O)(=O)N1CCN(c2ccc(F)cc2)CC1,3.15
3,COc1cc(-c2nc3sccn3c2Nc2c(C)cccc2C)ccc1O,-9.6
4,CCOc1ccc(-n2c(=O)c3c4c(sc3n(CC(=O)NC(C)CC)c2=O)CCCCC4)cc1 (stereo unspecified),-1.62
5,O=C(Nc1ccc(F)cc1)Nc1csc2c1CCCC2,4.23
6,Cc1ccc(CNC(=O)CSc2nc3c(sc4ccccc43)c(=O)n2CCCC(=O)NCCO)cc1,11.4
7,CCN1C(C(=O)c2ccccc2)=C(OC(=O)COc2ccc(C)cc2)c2ccccc2S1(=O)=O,12.5
8,COC(=O)c1ccc(N2C(=O)Cc3cc(OC)c(OC)cc3C2c2ccc(F)cc2)cc1 (stereo unspecified),-15.2
9,O=C(c1ccc2c(Cl)c3c(nc2c1)CCCC3)N1CCN(c2ccc(Cl)cc2)CC1,-0.239
10,COc1ccc(N2CCN(CCCNC(=O)C3COc4ccccc4C3)CC2)cc1 (stereo unspecified),-11.9
11,O=C(Nc1nc2c(F)cc(F)cc2s1)c1ccc(S(=O)(=O)N2CCc3ccccc32)cc1,-20.5
12,CCOCCc1nnc(NC(=O)C(=O)c2cc(C)n(-c3ccc(C)cc3C)c2C)s1,-0.152
13,COc1ccc2c(c1)c1c(c(=O)n(Cc3ccccc3)c(=O)n1CC(=O)Nc1ccccc1OC)n2C,-10.7
14,CCn1c(C)c(C)c2cc(C(=O)NCC(C)c3ccccc3)ccc21 (stereo unspecified),-2.12
15,COc1ccc(N(CC(=O)Nc2cccc(Cl)c2)S(=O)(=O)c2c(C)[nH]c(=O)[nH]c2=O)cc1,16.9
16,Cc1ccccc1-c1noc(CSc2nc3ccccc3[nH]2)n1,-2.76
17,COc1ccc(CCCc2nnc(SCC(=O)Nc3cccc(F)c3C)o2)cc1,26
18,COCCCn1c(SCc2cccc(Cl)c2)nc2c(sc3ccccc32)c1=O,12.3
19,CCOCCc1nn2c(=O)cc(COC(=O)c3ccccc3OC)nc2s1,-19
